The source of these data is ChEMBL document CHEMBL1201862, “PubChem BioAssay data set” (2004).

Each structure is given as a SMILES string.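 Step 1: Grow cells in 96-well plates. Step 2: Expose to compound for 48 hours at 5 concentrations. Step 3: Interpolate endpoints linearly; if unreached, use highest concentration. GI50 marks 50% less growth.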 Activity calls are given as the source filed them. Rule as the data show it: active = GI50 up to about 1.1 µM and inactive = higher.

In the assay the test system is NCI-H322M. Put plainly: growth of human tumour cells (NCI), 48 h.
As for `CC(=O)Nc1ccc(/C=C/C(=O)N2CC(CCl)c3c2cc(N)c2ccccc32)cc1` (stereo unspecified), the GI50 is active: < 0.005 µM.

For the compound `O=C1c2cccc3cccc(c23)C(=O)N1O`, the GI50 is inactive: 90.8 µM.

As for `CC(C)CNCCc1ccccn1`, the GI50 is inactive: > 100 µM.

Turning to `CC(=O)OC1CCC2(C)C(=CCC3C2CCC2(C)C3CC3OC4(CCC(C)CN4)C(C)C32)C1` (stereo unspecified), the GI50 is inactive: > 100 µM.

On to `CC(C)=NNc1ncnc2[nH]cnc12`, for which the GI50 is inactive: 3.53 µM.

Regarding `Cc1ccccc1NC(=O)CSc1nnc(Cc2ccccc2)o1`, the GI50 was inactive: > 100 µM.

For `CC(=O)Nc1cc2c(cc1O)CC[C@@H]1[C@@H]2CC[C@]2(C)[C@@H](O)CC[C@@H]12`, the GI50 was inactive: 81.7 µM.

Take `O=C(O)c1cccc(OCCO)c1`: the GI50 was inactive: > 100 µM.

As for `CN1CCC23c4ccccc4NC1C21CCN(C)C3Nc2ccccc21`, the GI50 is inactive: > 185 µM.

For `C#CCNC(Cc1c[nH]cn1)C(=O)O` (stereo unspecified), the GI50 is inactive: > 100 µM.

As to `N#C/C(=C1\N=C(c2ccccc2O)Oc2ccccc21)c1ccc([N+](=O)[O-])cc1`, the GI50 was inactive: > 100 µM.

Regarding `C/C(=N\Nc1nnc(S)n1N)c1c(O)cc(C)oc1=O`, the GI50 was inactive: > 100 µM.

Regarding `O=c1[nH]cnc2c(COCCCO)c[nH]c12`, the GI50 was inactive: > 100 µM.

With `COc1ccc2c(c1)CCC(CN1CCN(CCOC(c3ccccc3)c3ccccc3)CC1)C2O` (stereo unspecified), the GI50 was inactive: 15.8 µM.

Turning to `CCN1C(=S)n2cccc2C1CC(=O)c1ccc(Cl)cc1` (stereo unspecified), the GI50 was inactive: > 100 µM.

For `O=C(/C=C/c1cccc2ccccc12)c1ccccc1Cl`, the GI50 was inactive: 17.1 µM.

Turning to `COc1ccc(-n2sc3ncc(-c4ccccc4)cc3c2=O)cc1`, the GI50 is inactive: > 100 µM.

On to `CC(=O)CCCCO`, for which the GI50 was inactive: > 100 µM.

As to `CN(C)/N=C1\CC(c2ccccc2)C(C#N)(C#N)C1(C#N)C#N` (stereo unspecified), the GI50 was inactive: 23.5 µM.

On to `C=CCc1cccc2cc(C(=O)Nc3ccc(C)cc3)c(=N)oc12`, for which the GI50 was inactive: > 100 µM.

As to `N#Cc1c(-c2ccc(Cl)cc2)cc(-c2nc3ccccc3[nH]2)nc1N`, the GI50 is inactive: 15.1 µM.

`C=CCNC(=S)N/N=C1\C(=O)N(CN2CCOCC2)c2ccc([N+](=O)[O-])cc21`: the GI50 is inactive: 28.2 µM.

Take `CN(C)/N=C(\CCN1CCCC1)CC(c1ccccc1)c1c(O)c2ccccc2oc1=O` (stereo unspecified): the GI50 was inactive: > 100 µM.

Take `O=C1CCCCC[C@]12SC[C@H]1CON=C12`: the GI50 is inactive: 52.4 µM.

Consider `CC(=O)OCC1OC(OC(C)=O)C(NC#N)C(OC(C)=O)C1OC(C)=O` (stereo unspecified), for which the GI50 is inactive: > 100 µM.

With `O=C1/C(=C\c2cccc(Oc3ccccc3)c2)S(=O)(=O)C(c2ccccc2)N1c1ccc(Cl)cc1` (stereo unspecified), the GI50 is inactive: 36.4 µM.

With `C=CCOCC1C2CCC3(OCCO3)C21` (stereo unspecified), the GI50 was inactive: > 100 µM.

`[N-]=[N+]=CC(=O)c1ccccc1C#CCCc1ccccc1`: the GI50 was inactive: 40.2 µM.

`CC(=O)CC(=O)/C=C/c1cccs1`: the GI50 is inactive: 51.4 µM.

With `COc1cc2c(cc1OC)[C@@H](C(O)c1ccccc1)NCC2` (stereo partly specified), the GI50 was inactive: > 100 µM.

For `C=C1C(=O)OC2CC(C)C(C(CC(C)=O)OC(C)=O)=CCC12` (stereo unspecified), the GI50 was inactive: 38.3 µM.

On to `CC(C)CC(N)C(=O)NC(CNC(CCC(N)=O)C(=O)NC(CC(C)C)C(=O)NC(CC(C)C)C(=O)O)Cc1ccc2ccccc2c1` (stereo unspecified), for which the GI50 was inactive: > 10 µM.

As to `Cc1nn(C)c2c1C(=O)N(C)CC(=O)N2C`, the GI50 was inactive: > 100 µM.

Turning to `CC(=O)/N=C1/N(/C=C2\C(=O)Oc3ccccc3C2=O)C(=O)/C(=C/c2ccc(OC(C)=O)cc2)N1C`, the GI50 was inactive: > 100 µM.

Consider `O=c1[nH]c(=S)[nH]n1C(=S)n1[nH]c(=S)[nH]c1=O`, for which the GI50 is inactive: > 100 µM.

Regarding `COc1cc(C=O)cc(O)c1O`, the GI50 is inactive: > 100 µM.

Consider `Clc1ncc(C(Cl)(Cl)Cl)nc1-c1ccccc1`, for which the GI50 was inactive: 1.8 µM.

Turning to `COc1ccc(NC(=O)/C(CC2=Nc3ccc([N+](=O)[O-])cc3NC2O)=N\NC(=O)C[N+](C)(C)C)c(OC)c1` (stereo unspecified), the GI50 is inactive: > 100 µM.

As for `CC(=O)NC(CCCCN(Cc1ccccc1)C(=O)N(C)N=O)C(=O)NCc1ccccc1` (stereo unspecified), the GI50 is inactive: > 100 µM.

Consider `CCCCN(CCCC)c1c([N+](=O)[O-])c(=O)nc2ccccn12`, for which the GI50 is inactive: 23.1 µM.

In the case of `O=[N+]([O-])c1ccccc1S(=O)(=O)c1cccc2c1NCCC2`, the GI50 was inactive: 42.8 µM.

For the compound `CC(=O)O[C@H]1[C@@H]2OC(=O)[C@@](O)(CC3CCCO3)[C@@H]2CC(=O)[C@](C)(O)CC/C=C(\C)CCC[C@@H]1C` (stereo partly specified), the GI50 was inactive: > 100 µM.

On to `COc1ccc(/C=c2\sc3nnc(CCC(=O)Nc4cccc(C(F)(F)F)c4)n3c2=O)cc1`, for which the GI50 is inactive: > 100 µM.

With `Cc1ccc(S(=O)(=O)N/N=C2/C3CC4CCC2C4C3)cc1` (stereo unspecified), the GI50 is inactive: > 100 µM.

`Cc1cccc2c1NC(=S)[C@@H]1CCCN1C2=O`: the GI50 was inactive: > 100 µM.

Turning to `COC(=O)[C@@H](NC(=O)[C@H](N)Cc1ccc(N(CCCl)CCCl)cc1)C(C)C`, the GI50 was inactive: 36.6 µM.

As for `O=c1cc(-c2ccccc2)oc2c1ccc1nc3ccccc3c(O)c12`, the GI50 is inactive: 42 µM.

Take `C/C(=N\Nc1nc2ccccc2[nH]1)c1cccc[n+]1[O-]`: the GI50 was inactive: 44.1 µM.

Turning to `NCCSc1nc2ccccc2s1`, the GI50 is inactive: 43.3 µM.

For the compound `Cc1ccc2nc3c(C)c(Cl)c(=O)cc-3sc2c1`, the GI50 is inactive: 36.4 µM.

For `O=S(=O)(Cc1nc2ccccc2s1)c1nc2ccccc2s1`, the GI50 is inactive: 17.3 µM.

As to `CCOC(=O)C(C(N)=O)C1=Nc2cc([N+](=O)[O-])ccc2N/C1=C\C(=O)c1ccc(C)cc1` (stereo unspecified), the GI50 was inactive: 47.9 µM.

`COc1ccc(/C=C2\N=C3Sc4c([nH]cnc4=O)N3C2=O)cc1`: the GI50 was inactive: > 100 µM.

Consider `Cc1ccc(NC(=O)/C(CC(=O)c2c[n+]([O-])c3ccccc3[n+]2[O-])=N\NC(=O)C[n+]2ccccc2)cc1`, for which the GI50 is inactive: > 100 µM.

Take `COc1c2c(cc3c1OCO3)C13C=CC(OC)CC1N(CC3)C2.[O-][Cl+3]([O-])([O-])O` (stereo unspecified): the GI50 was inactive: > 100 µM.

On to `Nc1ccc2c(=S)c3ccccc3[nH]c2c1`, for which the GI50 was inactive: 48.5 µM.

With `c1ccc(Nc2nnc(CCCCCCCCc3nnc(Nc4ccccc4)o3)o2)cc1`, the GI50 was inactive: > 100 µM.

For the compound `CC(=O)Nc1oc(C)nc1C#N`, the GI50 is inactive: > 100 µM.

With `O=C1C=CC(=O)[C@H]2C3C=CC(C4C3C3(Cl)C(Cl)=C(Cl)[C@]4(Cl)C3(Cl)Cl)[C@@H]12` (stereo partly specified), the GI50 was inactive: 14.1 µM.

For `CCOc1c(/N=N/c2ccccc2Cl)c(-c2ccccc2)nn1C(=S)S`, the GI50 was inactive: 95.5 µM.

Turning to `COc1ccc(S(=O)(=O)N/N=C/CN2C(=O)c3ccccc3C2=O)cc1OC`, the GI50 is inactive: > 100 µM.

On to `CCOC(=O)NNC(=O)NCc1cccc(CNC(=O)NNC(=O)OCC)c1`, for which the GI50 was inactive: > 100 µM.

In the case of `C/C(CC(=O)Nc1ccccc1)=N\NC(N)=S`, the GI50 is inactive: > 100 µM.

`COc1ccc(C2C(N)=NCC2c2ccccn2)cc1` (stereo unspecified): the GI50 was inactive: > 100 µM.

Turning to `COc1ccc(CCN(C)C2CCC(C#N)(c3ccc(OC)c(OC)c3)CC2)cc1OC` (stereo unspecified), the GI50 is inactive: > 100 µM.

Regarding `Fc1cccc(CSc2ncnc3c2ncn3C2CCCS2)c1` (stereo unspecified), the GI50 is inactive: 38.2 µM.

For `CCCC1NC(C#N)(C#N)C(CCC)NC1(C#N)C#N` (stereo unspecified), the GI50 was inactive: 37.6 µM.

In the case of `CCOC(=O)c1c(-c2ccccc2)c(C)cn1C`, the GI50 was inactive: > 10 µM.

With `Cc1ccc([N+](=O)[O-])cc1S(=O)(=O)Nc1ccc(C2=NN(C(=O)c3ccccc3)C(c3ccccc3)C2)cc1` (stereo unspecified), the GI50 is inactive: 33 µM.

In the case of `c1ccc(C(NC2=NCCO2)C2CC2)cc1` (stereo unspecified), the GI50 was inactive: > 100 µM.

Turning to `CCOC(=O)C(NC(=O)Nc1ccccc1F)(OC)C(F)(F)F` (stereo unspecified), the GI50 was inactive: > 100 µM.

`CCC1C(c2ccccc2O)c2cc3c(cc2OC1N1CCOCC1)OCO3` (stereo unspecified): the GI50 is inactive: 16.2 µM.

As to `COc1ccccc1NC(=O)/C(=C/c1ccccc1)C(C)=O`, the GI50 is inactive: 45 µM.

Turning to `Cc1nc(O)nc2c1C(NCCCN(C)C)c1cc(Cl)ccc1N2` (stereo unspecified), the GI50 was inactive: 15.5 µM.

For `OC(C1CCCCCCCCCC1)C(O)C1CCCCCCCCCC1` (stereo unspecified), the GI50 is inactive: > 100 µM.

As to `[N-]=[N+]=Nc1ccccc1-[n+]1noc([O-])c1Br`, the GI50 is inactive: > 100 µM.

Regarding `COC(=O)c1cc(OS(=O)(=O)C(F)(F)F)c(=O)n2c1CCCC2`, the GI50 is inactive: > 100 µM.

Consider `CC1=C(C(=O)Nc2ccccc2)C2(CCCCC2)C(C#N)=C(SCC(=O)Nc2ccc(Br)cc2)N1`, for which the GI50 was inactive: 5.58 µM.

On to `CC(=O)NC(CCC(=O)C=[N+]=[N-])C(=O)O` (stereo unspecified), for which the GI50 was inactive: > 100 µM.

Turning to `COCOC1CCCC[C@@]1(OCCOCCO[C@@]1(c2ccccc2)CCCC[C@H]1OCOC)c1ccccc1` (stereo partly specified), the GI50 is inactive: > 100 µM.

Regarding `O=c1c(C(c2ccc3ccccc3c2)c2c(O)oc3cc(O)ccc3c2=O)c(O)oc2cc(O)ccc12`, the GI50 is inactive: > 100 µM.

As for `COc1ccc2nc(NC(=O)C(=O)C(C(=O)c3ccccc3-c3ccccc3)C3OC(=O)c4ccccc43)sc2c1` (stereo unspecified), the GI50 is inactive: 19.5 µM.

For the compound `NCCCNc1ccc2c3c(nn2CCNCCO)-c2c(O)ccc(O)c2C(=O)c13`, the GI50 was inactive: 3.08 µM.

With `c1ccc(-c2ccnc3c2ccc2c(-c4ccccc4)ccnc23)cc1`, the GI50 is active: 1 µM.

For the compound `Cc1c(S(=O)(=O)N/C(=N\O)Nc2ccc(Cl)cc2)sc2ccc(Cl)cc12`, the GI50 was inactive: 17.7 µM.

On to `O=c1c(C(c2ccc(OCc3ccccc3)cc2)c2c(O)oc3ccccc3c2=O)c(O)oc2ccccc12`, for which the GI50 was inactive: 83.9 µM.
